# Reference: the supplement of paper PMC8728848
# Some of the results follow.
# B1: PX9961U-pdi-543-24-543 (Parabacteroides distasonis) (protein)
# chain: EEPVGEFLPGQVESEENIEGIVTGAYAVLDGYYASDAINSGCSNWQFGDVVSDDAYKGGGGTGDQNQIHLMEIFNANPTGIDFEARWAALYEGIKRCNQAIRLLNGSEVKNKEQRLAEMRFLRGHYYFNLKIIYNQIPWIDETLVDPNEYNKKSNIEFSSDQLWEKILEEFSAAYKVLPESQADYGRPTKMAARAYMAKVYLYQSKWKECLEACDEVIQSGKYELFPDFRNVFLPENDNCSEIIFAIQLSINDGSPNNENGSYGDRLLPPGGPYPVYGFLRPTQNLVNAYKTDVKGLPYNDGKDVSENDYVDVRLDHTLARPNIPFMDVQLYDWTPREASVYGPYSPKKRLVSLNSTYYSPIWPYVNALNFYVIRYADLLLWRAEAAIETGDLETGRKYINMIRERAKNTQHVKTMDQSQDAANYKVGVYDEPFKSKNEAVQALRMERRLEMAHEGIRFFDLVRWGVADEVINAYIAKEKVFRSHLQNAHFVKGKHEYFPIPQSMIDICGTEVMKQNPGY
# Experiments:
# Assay in all cases: glycan array binding signal (z-score within array); higher = stronger binding
# Details in all cases: glycan notation: IUPAC condensed, linker removed
# Fuc(a1-3)GlcNAc = target: Fuc(a1-3)GlcNAc
# Method in brief: (§1)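 Glycan array data were curated from 3228 arrays in the Consortium for Functional Glycomics database and kept only where the protein sequence was available. Glycan names were converted to IUPAC-condensed notation, and columns mapping to the same glycan were averaged. The binding signal is a within-array Z-score, averaged across arrays of the same protein sequence at different concentrations or buffers and across linkers. Negative Z-scores can be read as non-binding.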
# [1] = target: Fuc(a1-3)[Gal(b1-4)]Glc6S
# Method in brief: as §1
# [2] = target: Fuc(a1-3)[Gal(b1-4)]GlcNAc
# Method in brief: as §1
# [3] = target: Fuc(a1-3)[Gal(b1-4)]GlcNAc(b1-2)Man
# Method in brief: as §1
# [4] = target: Fuc(a1-3)[Gal(b1-4)]GlcNAc(b1-2)Man(a1-3)[Fuc(a1-3)[Gal(b1-4)]GlcNAc(b1-2)Man(a1-6)]Man(b1-4)GlcNAc(b1-4)GlcNAc
# Method in brief: as §1
# [5] = target: Fuc(a1-3)[Gal(b1-4)]GlcNAc(b1-2)Man(a1-3)[Fuc(a1-3)[Gal(b1-4)]GlcNAc(b1-2)Man(a1-6)]Man(b1-4)GlcNAc(b1-4)[Fuc(a1-6)]GlcNAc
# Method in brief: as §1
# [6] = target: Fuc(a1-3)[Gal(b1-4)]GlcNAc(b1-3)Gal(b1-3)[Fuc(a1-4)]GlcNAc
# Method in brief: as §1
# [7] = target: Fuc(a1-3)[Gal(b1-4)]GlcNAc(b1-3)Gal(b1-4)[Fuc(a1-3)]GlcNAc
# Method in brief: as §1
# [8] = target: Fuc(a1-3)[Gal(b1-4)]GlcNAc(b1-3)Gal(b1-4)[Fuc(a1-3)]GlcNAc(b1-3)Gal(b1-4)[Fuc(a1-3)]GlcNAc
# Method in brief: as §1
# [9] = target: Fuc(a1-3)[Gal(b1-4)]GlcNAc(b1-3)GalNAc
# Method in brief: as §1
# [10] = target: Fuc(a1-3)[Gal(b1-4)]GlcNAc(b1-6)GalNAc
# Method in brief: as §1
# [11] = target: Fuc(a1-3)[Gal(b1-4)]GlcNAc(b1-6)[Gal(b1-3)GlcNAc(b1-3)]Gal(b1-4)Glc
# Method in brief: as §1
# [12] = target: Fuc(a1-3)[Gal(b1-4)]GlcNAc6S
# Method in brief: as §1
# [13] = target: Fuc(a1-3)[Gal3S(b1-4)]Glc
# Method in brief: as §1
# [14] = target: Fuc(a1-3)[Gal3S(b1-4)]GlcNAc
# Method in brief: as §1
# [15] = target: Fuc(a1-3)[Gal3S(b1-4)]GlcNAc6S
# Method in brief: as §1
# [16] = target: Fuc(a1-3)[GalNAc(b1-4)]GlcNAc
# Method in brief: as §1
# [17] = target: Fuc(a1-3)[GalNAc(b1-4)]GlcNAc6S
# Method in brief: as §1
# Fuc(a1-4)GlcNAc = target: Fuc(a1-4)GlcNAc
# Method in brief: as §1
# Fuc(b1-3)GlcNAc = target: Fuc(b1-3)GlcNAc
# Method in brief: as §1
# Gal(a1-2)Gal = target: Gal(a1-2)Gal
# Method in brief: as §1
# Gal(a1-3)Gal = target: Gal(a1-3)Gal
# Method in brief: as §1
# Gal(a1-3)Gal(b1-3)GlcNAc = target: Gal(a1-3)Gal(b1-3)GlcNAc
# Method in brief: as §1
# [18] = target: Gal(a1-3)Gal(b1-3)GlcNAc(b1-2)Man
# Method in brief: as §1
# [19] = target: Gal(a1-3)Gal(b1-3)GlcNAc(b1-2)Man(a1-3)[Gal(a1-3)Gal(b1-3)GlcNAc(b1-2)Man(a1-6)]Man(b1-4)GlcNAc(b1-4)GlcNAc
# Method in brief: as §1
# [20] = target: Gal(a1-3)Gal(b1-3)GlcNAc(b1-3)GalNAc
# Method in brief: as §1
# [21] = target: Gal(a1-3)Gal(b1-3)GlcNAc(b1-6)GalNAc
# Method in brief: as §1
# [22] = target: Gal(a1-3)Gal(b1-3)[Fuc(a1-4)]GlcNAc(b1-2)Man(a1-3)[Gal(a1-3)Gal(b1-3)[Fuc(a1-4)]GlcNAc(b1-2)Man(a1-6)]Man(b1-4)GlcNAc(b1-4)GlcNAc
# Method in brief: as §1
# Gal(a1-3)Gal(b1-4)Glc = target: Gal(a1-3)Gal(b1-4)Glc
# Method in brief: as §1
# Gal(a1-3)Gal(b1-4)GlcNAc = target: Gal(a1-3)Gal(b1-4)GlcNAc
# Method in brief: as §1
# [23] = target: Gal(a1-3)Gal(b1-4)GlcNAc(b1-2)Man
# Method in brief: as §1
# [24] = target: Gal(a1-3)Gal(b1-4)GlcNAc(b1-2)Man(a1-3)[Gal(a1-3)Gal(b1-4)GlcNAc(b1-2)Man(a1-6)]Man(b1-4)GlcNAc(b1-4)GlcNAc
# Method in brief: as §1
# [25] = target: Gal(a1-3)Gal(b1-4)GlcNAc(b1-3)GalNAc
# Method in brief: as §1
# [26] = target: Gal(a1-3)Gal(b1-4)GlcNAc(b1-6)GalNAc
# Method in brief: as §1
# [27] = target: Gal(a1-3)Gal(b1-4)[Fuc(a1-3)]GlcNAc
# Method in brief: as §1
# [28] = target: Gal(a1-3)Gal(b1-4)[Fuc(a1-3)]GlcNAc(b1-2)Man(a1-3)[Gal(a1-3)Gal(b1-4)[Fuc(a1-3)]GlcNAc(b1-2)Man(a1-6)]Man(b1-4)GlcNAc(b1-4)GlcNAc
# Method in brief: as §1
# Gal(a1-3)GalNAc = target: Gal(a1-3)GalNAc
# Method in brief: as §1
binder,measurement,setting,value
B1,glycan array binding signal (z-score),Fuc(a1-3)GlcNAc,-0.428
same,glycan array binding signal (z-score),[1],-0.319
same,glycan array binding signal (z-score),[2],-0.33
same,glycan array binding signal (z-score),[3],-0.413
same,glycan array binding signal (z-score),[4],0.28
same,glycan array binding signal (z-score),[5],1.15
same,glycan array binding signal (z-score),[6],-0.382
same,glycan array binding signal (z-score),[7],-0.37
same,glycan array binding signal (z-score),[8],-0.416
same,glycan array binding signal (z-score),[9],0.514
same,glycan array binding signal (z-score),[10],0.082
same,glycan array binding signal (z-score),[11],-0.327
same,glycan array binding signal (z-score),[12],0.485
same,glycan array binding signal (z-score),[13],-0.401
same,glycan array binding signal (z-score),[14],-0.394
same,glycan array binding signal (z-score),[15],-0.362
same,glycan array binding signal (z-score),[16],-0.446
same,glycan array binding signal (z-score),[17],-0.338
same,glycan array binding signal (z-score),Fuc(a1-4)GlcNAc,-0.433
same,glycan array binding signal (z-score),Fuc(b1-3)GlcNAc,-0.456
same,glycan array binding signal (z-score),Gal(a1-2)Gal,-0.353
same,glycan array binding signal (z-score),Gal(a1-3)Gal,2.49
same,glycan array binding signal (z-score),Gal(a1-3)Gal(b1-3)GlcNAc,0.001
same,glycan array binding signal (z-score),[18],0.079
same,glycan array binding signal (z-score),[19],1.15
same,glycan array binding signal (z-score),[20],-0.232
same,glycan array binding signal (z-score),[21],-0.308
same,glycan array binding signal (z-score),[22],4.38
same,glycan array binding signal (z-score),Gal(a1-3)Gal(b1-4)Glc,-0.175
same,glycan array binding signal (z-score),Gal(a1-3)Gal(b1-4)GlcNAc,-0.225
same,glycan array binding signal (z-score),[23],-0.346
same,glycan array binding signal (z-score),[24],3.05
same,glycan array binding signal (z-score),[25],0.724
same,glycan array binding signal (z-score),[26],-0.016
same,glycan array binding signal (z-score),[27],0.287
same,glycan array binding signal (z-score),[28],-0.326
same,glycan array binding signal (z-score),Gal(a1-3)GalNAc,-0.348
